# Assay results taken from the supplement of paper PMC4466236.
# Over roughly 33,000 sequences, “E-score (dimensionless, -0.5 to 0.5)” has its median near -0.058; the highest 2% begin near 0.35. The list shows a part of the results.
# Test system: MvaT
# Experiment: PBM 8-mer E-score (mean of HK and ME arrays) (E-score (dimensionless, -0.5 to 0.5)); higher = stronger relative binding preference; most listed sequences are background and not binding sites
# Procedure, shortened: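 Full-length P. aeruginosa MvaT carrying an N-terminal glutathione S-transferase tag was tested by protein binding microarray following a previously described protocol. Two universal double-stranded 60-mer arrays, ME and HK, were used, each with a constant 25-mer primer region and a variable 35-mer region covering all 8-mers. The rank-based E-score is the mean of the two arrays, parsed with a custom script. Its range runs from -0.5 to 0.5 for each 8-mer.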
row,Sequence,PBM 8-mer E-score
1,AAGAACGC,0.00314
2,ATTGGTTG,0.0565
3,AGATCTTC,-0.0782
4,GATAGAAC,0.0967
5,ATTGCTGA,-0.0547
6,ATCCGGAC,-0.0907
7,CCGGCCAG,-0.243
8,GAATGTAC,0.161
9,CCCCATTA,0.0583
10,ATTTACAC,0.255
11,GATTTCCC,-0.00935
12,CGGCTAAC,-0.181
13,ATTAGGAA,0.0514
14,AACGTTAA,0.31
15,AGCGGACT,-0.0758
16,ATACTAGC,0.192
17,GATGACTA,0.0511
18,CAATGTAC,0.163
19,GGATCAAC,-0.144
20,ATAAGGTA,0.207
21,TCCTTCGA,-0.106
22,GATCGAAA,-0.082
23,GAAGATTC,-0.0282
24,AAGAGTTC,0.0252
25,GAAAGTTC,0.219

row,Sequence,PBM 8-mer E-score
1,ACAACGCT,-0.0466
2,AGTAGGTA,0.0489
3,CTTTCGCC,-0.0952
4,GAACACTC,-0.215
5,CCGCCTAA,-0.0954
6,GCTGCCGA,-0.235
7,GTACTCTA,0.068
8,CGGTAGAC,-0.255
9,AATTGCGA,0.231
10,AACGTCCT,-0.224
11,AGACAAGA,0.0932
12,TAACACAA,0.295
13,AGCTTGGA,-0.0712
14,ACAGGTCC,-0.217
15,AATATCAA,0.338
16,GCATTATA,0.309
17,ATAAATAG,0.358
18,CTGCAGAC,-0.0289
19,CAGAATAA,0.234
20,AGGCCTAG,-0.103
21,AGTTCAAA,0.268
22,AACCCTAT,-0.0198
23,GCTCAATA,0.134
24,CCAGATAC,-0.0554
25,GGTGCGAC,-0.205

row,Sequence,PBM 8-mer E-score
1,CAATCTAC,0.032
2,CCGGCATA,0.0353
3,CGTCTAAA,0.0417
4,GCTCGGCA,-0.252
5,CTGAGTAC,-0.0958
6,GTCTATTA,0.253
7,CTTTAGAC,0.0841
8,AATTCCCC,0.0365
9,CGTGGTTC,-0.229
10,CACCCGTG,-0.135
11,CTAGGAAG,-0.173
12,TCCTGTCA,-0.158
13,TCAGTAGA,-0.0609
14,AAGTACAT,0.261
15,GGAATGAA,-0.0881
16,ACTGCCCC,-0.177
17,AAGTTCGC,0.228
18,CCGTAATC,-0.0203
19,CACTTGGC,-0.0214
20,CCTATTCA,-0.0217
21,AACTCCCC,-0.179
22,TCTACTCA,-0.00357
23,CCTTAGAG,-0.27
24,CCGTCGTA,-0.106
25,CCTCAGCA,-0.33

row,Sequence,PBM 8-mer E-score
1,GAGAGGAC,-0.214
2,AGGCGATG,-0.274
3,CGAACTCG,-0.0897
4,TTATAAAA,0.399
5,GAACTGTC,-0.103
6,ACTCGCAG,-0.101
7,AACAATGC,0.152
8,CACTGCGG,-0.274
9,CAGAGGCC,-0.231
10,TCTCCACA,-0.0938
11,GCGCACGA,-0.106
12,GGATATCA,0.0457
13,GTATGGAC,0.0495
14,GAAAATCC,-0.0819
15,ACGAGATA,0.0636
16,AAGGACCC,-0.19
17,AAGACCCT,-0.279
18,GGAGTAGA,0.0177
19,ACGCGTAT,0.16
20,AGCCTAAG,-0.147
21,TATCGATA,0.224
22,ACCTGGAT,-0.141
23,CACACAGA,0.133
24,GTTGTCTA,-0.0351
25,ATCGACAG,-0.0324

row,Sequence,PBM 8-mer E-score
1,CGTCTAAG,-0.0874
2,AGCTGGTC,-0.199
3,AACCTATA,0.166
4,CTTGTCGA,-0.222
5,ACTGTCCA,-0.0981
6,CCAAGACG,-0.218
7,AAATTTGG,0.106
8,ATAAGCGC,0.0457
9,ATGAGTCC,-0.174
10,CAGTTCCG,-0.0936
11,CTGCACTC,-0.162
12,AGACCCCG,-0.261
13,AGAGCCAT,-0.0987
14,GCCAGTCC,-0.269
15,CGCGGCAG,-0.215
16,CCCACGTC,-0.236
17,GACAAAGC,-0.149
18,AATGAGGG,-0.139
19,CTTGCACA,-0.0147
20,GACCCCTA,-0.163
21,GATCGAGC,-0.169
22,ACTGTTTC,0.000661
23,AGCCCGAC,-0.235
24,ACCTATCT,-0.0902
25,ACATGCAG,0.0343

row,Sequence,PBM 8-mer E-score
1,CTACCGAG,-0.064
2,CTTTAATA,0.344
3,AGACAAAC,0.174
4,CGTCGAAC,-0.118
5,AACAGGTA,0.0496
6,AATAGGCC,-0.095
7,CTAGTGGC,-0.0715
8,CAAACGAA,0.00401
9,ATGAGGTC,-0.0821
10,AGTGGTCA,-0.088
11,ACTCAAAG,-0.0591
12,CCACCCGG,-0.138
13,AACAAACT,0.265
14,CTCAGCGA,-0.309
15,CCTCGACC,-0.286
16,CCGGATGA,-0.0733
17,AAGCGTGA,-0.115
18,AGCAAGCC,-0.259
19,AGTACATG,0.059
20,GTAGTCGA,0.0836
21,ATTACTGG,0.104
22,ACTATGTG,0.172
23,ACCTGACA,-0.133
24,GGGTGTAC,-0.158
25,CCGGATCC,-0.232

row,Sequence,PBM 8-mer E-score
1,CCCAGTCA,-0.0997
2,AAGCATGT,0.00355
3,GATAAAGC,-0.0488
4,CAGCGGTC,-0.31
5,ACTTCCGG,-0.116
6,AAGGGAGC,-0.174
7,ACCTGAAA,0.0497
8,GAGGGTAC,-0.202
9,AGGTGATC,-0.195
10,ACGTCCAT,-0.126
11,ATCCTACC,-0.158
12,CTCGCAGA,-0.248
13,AGCCGGTG,-0.261
14,TCCGCTCA,-0.198
15,ATTGAAAC,0.0966
16,GGGTTACA,-0.0134
17,ACGTATTA,0.356
18,CACTCGTA,0.0956
19,GGAATTGA,0.056
20,ACTAATGA,0.138
21,CAGGATTC,-0.0863
22,GCACCTTA,-0.0832
23,CGGACTAC,-0.111
24,CAGCAGGC,-0.262
25,ACTTAGAG,0.106

row,Sequence,PBM 8-mer E-score
1,AGCGCAGG,-0.263
2,CGATCACG,-0.187
3,CGGCCACG,-0.363
4,CGCGAAGC,-0.268
5,ACAGTCTC,-0.129
6,ACGATAGT,0.121
7,CTGGGGGC,-0.361
8,ATCGGTTG,-0.04
9,ATGAGGCG,-0.17
10,AGCAACGG,-0.0075
11,TGATCACA,0.0119
12,AGCAATGA,-0.143
13,GGAGTTCA,0.0321
14,CCTACGTA,-0.205
15,CTGGATCA,-0.136
16,AAATGGCG,0.112
17,CGAATTCA,-0.0127
18,AGCCAGGC,-0.198
19,TAGAACTA,0.226
20,CGGCAATA,0.172
21,TATTACAA,0.351
22,ACAACGAG,-0.0748
23,ATGCGGTA,-0.111
24,CCGTCTGC,-0.277
25,AAATGTCG,0.138

row,Sequence,PBM 8-mer E-score
1,AGCCAAAT,-0.083
2,AATCTCAT,0.0925
3,CTAGGGGA,-0.24
4,CAGTCACA,-0.142
5,AAGGAGCA,-0.332
6,CACAATCC,0.0089
7,CTCGACAG,-0.137
8,ATTTTTAG,0.219
9,ACTCACGA,-0.251
10,CTGGTGTC,-0.174
11,GACACTGC,-0.276
12,CCATAACC,0.00609
13,TCGTCGCA,-0.0186
14,GAGCTGCC,-0.23
15,CGGAAAGA,-0.0466
16,CCAAACTA,0.247
17,AACGAACT,0.127
18,AAGCACGA,-0.184
19,CACGCCAC,-0.146
